Measurements: article PMC4336329 (PLoS ONE, 2015)
Screen size: about 310,000 compounds; about 14,000 (4.5%) showed an effect of 50% or more. Effects have a minus sign here. This is one part of the list.

The compounds below were run against human ether-à-go-go-related gene (hERG) potassium channel (human, UniProt Q12809) (assay: primary screen, population patch clamp on CHO cells stably expressing hERG).
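Also: peak tail current of the secondary pulse compared with the same well before compound.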

Sequence of human ether-à-go-go-related gene (hERG) potassium channel (Q12809 whole entry, looked up): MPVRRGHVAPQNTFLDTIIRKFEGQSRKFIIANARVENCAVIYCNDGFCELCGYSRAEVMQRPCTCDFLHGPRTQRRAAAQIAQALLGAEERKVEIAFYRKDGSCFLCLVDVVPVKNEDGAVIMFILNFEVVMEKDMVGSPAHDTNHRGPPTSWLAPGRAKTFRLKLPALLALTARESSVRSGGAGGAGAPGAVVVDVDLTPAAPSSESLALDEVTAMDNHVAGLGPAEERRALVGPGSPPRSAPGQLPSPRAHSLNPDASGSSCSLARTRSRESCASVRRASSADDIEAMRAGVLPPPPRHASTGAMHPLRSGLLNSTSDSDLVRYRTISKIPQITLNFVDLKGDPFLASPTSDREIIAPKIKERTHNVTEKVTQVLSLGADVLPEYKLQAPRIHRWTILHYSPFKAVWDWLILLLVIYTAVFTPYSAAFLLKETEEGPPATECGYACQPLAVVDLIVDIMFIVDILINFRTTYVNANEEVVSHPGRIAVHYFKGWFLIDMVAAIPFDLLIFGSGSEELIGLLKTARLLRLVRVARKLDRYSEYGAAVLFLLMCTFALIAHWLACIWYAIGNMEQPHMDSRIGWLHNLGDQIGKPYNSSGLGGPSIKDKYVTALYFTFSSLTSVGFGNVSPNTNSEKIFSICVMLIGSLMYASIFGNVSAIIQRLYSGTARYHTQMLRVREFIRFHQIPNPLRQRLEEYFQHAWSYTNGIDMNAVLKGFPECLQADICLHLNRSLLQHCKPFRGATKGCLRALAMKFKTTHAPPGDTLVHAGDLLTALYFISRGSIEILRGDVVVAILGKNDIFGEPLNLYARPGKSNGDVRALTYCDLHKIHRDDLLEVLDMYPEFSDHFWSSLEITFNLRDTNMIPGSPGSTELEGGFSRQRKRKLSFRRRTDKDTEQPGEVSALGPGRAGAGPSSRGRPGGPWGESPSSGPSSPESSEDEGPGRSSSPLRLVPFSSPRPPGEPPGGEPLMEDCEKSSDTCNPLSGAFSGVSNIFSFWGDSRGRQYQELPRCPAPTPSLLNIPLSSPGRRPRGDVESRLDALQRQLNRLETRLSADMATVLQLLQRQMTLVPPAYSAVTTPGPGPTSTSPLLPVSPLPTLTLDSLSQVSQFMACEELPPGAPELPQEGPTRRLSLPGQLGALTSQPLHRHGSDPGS

SMILES	hERG current change (%, negative = inhibition) at 10uM
CCOC(=O)c1c(C)[nH]c(C)c1C(=O)CSc1nc(N)cc(=O)[nH]1	0.173%
Cn1c(=O)c2c(-c3ccccc3)n(-c3ccccc3O)cc2n(C)c1=O	1.25%
CCN1CCN(Cc2ccc(NC(=O)c3ccc(C)c(NC(=O)c4ccc5n[nH]nc5c4)c3)cc2C(F)(F)F)CC1	-1.8%
COC(=O)c1ccc(-n2c(C)ccc2-c2ccccc2)cc1	2.49%
COc1cc(OC)cc(C(=O)NNC(=O)c2ccc(S(=O)(=O)N3CC(C)OC(C)C3)cc2)c1 (stereo not shown)	12.6%
CC(C)Oc1ccc(C(=O)Nc2ccc(Cl)c(S(=O)(=O)Nc3ccc(Cl)cc3)c2)cc1	2.46%
COc1ccc(Br)cc1-c1noc(-c2ccccc2F)n1	25.6%
CC(C)C[C@H]1CN=C(Nc2ccccc2)N1CC1CCC(C(C)(C)C)CC1 (stereo partly shown)	-78.3%
C=CCNC(=O)c1onc(CSc2ccccc2)c1C(=O)NCC=C	-19.5%
O=C(NCCN1CCN(C(=O)c2cc3ccccc3oc2=O)CC1)c1cc2ccccc2oc1=O	-15.9%
CCCS(=O)(=O)N1CCCC(C(=O)NCCc2ccc(OC)c(OC)c2)C1 (stereo not shown)	1.22%
CCc1[nH]nc2c1C1(CCN(C(=O)c3ccccc3)CC1)C(C#N)=C(N)O2	-30.7%
COc1cc(C(CCN2CCCCC2)c2c(OC)cc(OC)c3c(C)cc(=O)oc23)cc(OC)c1OC (stereo not shown)	-99.6%
CC(=O)Nc1nc(NC(=O)/C=C/c2ccccc2)n(-c2ccccc2)n1	-1.34%
COc1cccc(C(=O)NCCSCc2ccccc2Cl)c1	-53.2%
COc1ccc(C(=O)Nc2cc(Cl)ccc2-n2cncn2)c(OC)c1OC	-14.4%
C[C@H](O)[C@H](O)[C@H]1CNc2nc(N)[nH]c(=O)c2N1.Cl	-3.82%
CCOc1ccc(Cc2nnc(N)s2)cc1OCC	-6.21%
CCN(CC)c1ccc(/C=N/NC(=O)c2nnn(-c3nonc3N)c2-c2ccc(C)cc2)cc1	7.07%
Cc1cc(NC(=O)CSc2nnc3c(C)cc4c(C)ccc(C)c4n23)no1	-5.13%
COc1cc(C2NC(=O)NC(c3ccccc3)=C2C(C)=O)ccc1OCC#N (stereo not shown)	-8.43%
Cc1ccc(CN(Cc2ccco2)C(=S)NCC(=O)O)cc1	9%
CCOc1cccc(N2CCN(CCNC(=O)Nc3ccc(C)cc3)CC2)c1C	-57%
Cn1c(C(=O)NCCCN2CCN(c3ccccc3F)CC2)cc2c(=O)n(C)c3ccccc3c21	-11.7%
CC(C)C(NC(=O)OCc1ccccc1)C(=O)OCC(=O)NC1CC1 (stereo not shown)	9.3%
CCNC(=O)CN(c1ccccc1)S(=O)(=O)c1ccc(Cl)cc1	2.13%
Cc1ccc(Cc2nnc(SCC(=O)Nc3ccccc3)[nH]c2=O)cc1	-23.3%
O=C(O)CC1C(=O)NCCN1Cc1ccc(F)c(F)c1 (stereo not shown)	29.2%

SMILES	hERG current change (%, negative = inhibition) at 10uM
Cc1cccc(NC(=O)CSc2ncnc3c2oc2ccccc23)c1	1.13%
C[n+]1cccc(C(=O)[O-])c1	19.6%
Cc1noc(C)c1CSc1nc2ccccc2c(=O)n1-c1ccc(Cl)cc1	1.99%
O=C(C1COc2ccccc2O1)N1CCN(c2ccccc2)CC1 (stereo not shown)	-16.9%
CCOC(=O)c1cnc(COc2ccccc2Cl)[nH]c1=O	16%
COc1ccc(N(CC(=O)Nc2cc(C)ccc2C)S(=O)(=O)c2c(C)noc2C)cc1	18.9%
Cn1ccnc1SCC(=O)Nc1nc2ccccc2s1	-25.1%
Cc1ccc(C(=O)Nc2ccccc2)cc1S(=O)(=O)N1CCN(C)CC1	8.48%
CC(=O)NS(=O)(=O)c1ccc(Nc2ccc([N+](=O)[O-])c3nonc23)cc1	18.2%
O=c1c2ccccc2c(C=Nc2ccc(S(=O)(=O)Nc3ncccn3)cc2)c(O)n1-c1cccc(Cl)c1	10.7%
CC1(C)CC(=O)C=C(NCc2cccnc2)C1	-3.78%
COc1cc(CO)ccc1OCc1ccc(Cl)nc1	0.213%
C(/C=C/C=C/Nc1ccccc1)=Nc1ccccc1	7.44%
CC(=O)c1cc(F)c(N2CCN(C(=O)COc3ccc(F)cc3)CC2)cc1C	-76.3%
CCOC(=O)c1ccc(NC(=O)CNC(=O)C23CC4CC(CC(C4)C2)C3)cc1	12.2%
CCCCN(C(=O)c1cccc(-n2cnnn2)c1)c1c(N)n(CC(C)C)c(=O)[nH]c1=O	3.88%
CCC(C)(C)n1nnnc1C(c1cc(OC)ccc1OC)N1CCN(Cc2ccccc2)CC1 (stereo not shown)	-15.5%
COc1ccc(CC(=O)NC(C)c2nnc(SCC(=O)Nc3cc(C)ccc3OC)n2C)cc1 (stereo not shown)	-9.28%
CC12C(=O)N(NC(=O)c3ccncc3)C(=O)C1C1C=CC2C1 (stereo not shown)	10.1%
CCOc1ccc(/C=N/Nc2ccccn2)cc1OC	-11.9%
O=C(NCc1ccccc1)C(=O)NCC1OCCCN1S(=O)(=O)c1cccs1 (stereo not shown)	-6.21%
CCOC(=O)c1ccc(NC(=O)Nc2ccc(F)cc2)cc1	11.9%
CC(=O)NCCNc1nc2c(-c3cccc(C(F)(F)F)c3)nnn2c2ccccc12	29.9%
CC1(C)CC(=O)C(N=Nc2ccc(S(=O)(=O)N3CCCCCC3)cc2)=C(O)C1	7.18%
O=C(COc1ccccc1[N+](=O)[O-])N/N=C/c1ccc(O)cc1	-2.04%
CCN(CC)CCNC(=O)/C(=N\O)c1ccccn1	17.1%
CN(C)/C=C/C(=O)c1ccc(F)cc1	-0.195%
